The text below walks through data of publication PMC12136788.

Numbering of substitutions follows the chain as printed. This is one part of the list.

First the molecules themselves.
B1: chr1:39494447:39494448:+_ENSG00000168653_ENST00000372967|hu_mus|hu_hu_hu_mus_False|78_98 (ssRNA)
RNA: GGGAGUUCUACAGUCCGACGAUCGCACCGAGCGGCGAUCUUGUAGGGCUGUUCUGCACUCUGGAUUAUAAAGUGCCGGUCCAGGCUGAUGCCCAGCUUUUUCUGUAUGUCAAGGAAAGGCAUGGCUCUGCAGUGCCCUUGUCACAACAGAGGAUUGAGCAUCA
B2: chr18:52893488:52893489:-_ENSG00000196628_ENST00000354452|hu_hu|hu_hu_hu_mus_True|1_1 (ssRNA)
RNA: GGGAGUUCUACAGUCCGACGAUCUAUUUAGACCAUUUCCGCGGAGUUAUGGCAUUUACUCAGUGCUGAUAGGUGGAAAAACUACUUCAACAGGGAUUUUUUUUUUCCUUAAUACAUGCCAAGAUUGUGUGGCUGUCAAAAAUACAACAGAGGAUUGAGCAUCA
B3: chr2:183789671:183789672:-_ENSG00000061676_ENST00000360982|hu_mus|motif|central (ssRNA)
RNA: GGGAGUUCUACAGUCCGACGAUCUUAUGGCAGGUACACUUGAAUUUCAAAUGUUAAAACAUAUAAAAAGUGAUUCGGGACGGCCAUCUGUAUCAACAGUUGCCAAGUGUCUGGUUGUUUAUUAUACAGCAGGGUAAAGGCAGUCAACAGAGGAUUGAGCAUCA
B4: chr11:4127340:4127341:+_ENSG00000167325_ENST00000300738|hu_mus|hu_hu_hu_mus_False|68_68 (ssRNA)
RNA: GGGAGUUCUACAGUCCGACGAUCGGCAUAGUCAGGGUGCUUCGUGGUCAAGGUCGCGGCUGUCUCAGCAGCCAAAGUGUCCAGUUCCACUGUGGUGACCCCACUAUAUAGGCCUUGGAUUACUUUCAUGGUGAUCUGAGCAGGCAACAGAGGAUUGAGCAUCA
B5: chr3:9412954:9412955:+_ENSG00000134077_ENST00000452837|hu_hu|motif|central (ssRNA)
RNA: GGGAGUUCUACAGUCCGACGAUCUGUUGAUACAUCCUCUUUGAUGGCUGGAUUUUCAUAAUAAUCUAAGAUAUGAGAAUCGGAAGCAUGGCUAGUGAACUCUUUUUUAACAUUUCUCUGAUCGAUUUUGACUUCUUGUCCAUUCAACAGAGGAUUGAGCAUCA
B6: chr5:34943985:34943986:+_ENSMUSG00000029106_ENSMUST00000114338|mus_mus|FALSE|FALSE (ssRNA)
RNA: GGGAGUUCUACAGUCCGACGAUCGUGGUUGGAGGUGGUGAGGUCACCACUGCGGCCCGAGUGUCACCAUUCAUUGCACAAUUUUCCUAGGGUCCUCCGCGGAGAAUCGGGGAGAGAGCACGGCUUCCCGGGUCCGAGUGCGGCCAACAGAGGAUUGAGCAUCA
B7: 150445528_150445648_4168_CDS_ENSG00000163125_ENST00000369068|human|control|control (ssRNA)
RNA: GGGAGUUCUACAGUCCGACGAUCGCUGAUGGUGUCUCUGUGUGAGGGACCCAAGGGGGGGCCACUGCUGCUGUUGCUGCCUCCCCCACCUCCUCCUCCAUGGGGUGGGCCCAGGUGUUCCAGAGAAUGGGAGGGUAGGGUGAGCAACAGAGGAUUGAGCAUCA
B8: chr12:105536279:105536280:+_ENSG00000136051_ENST00000332180|hu_mus|hu_hu_hu_mus_True|18_78 (ssRNA)
RNA: GGGAGUUCUACAGUCCGACGAUCAGCACUGAACAUGUAAUGUAAUCUGGCUGCAUCAACAGCAUUUUCAUAUACAUCAUCUAAAUAAAUCGGGAAGACAGCGCGAUGCCAGUAUAAAAAACAACAGUCACACUGUGCUUGGACCAACAGAGGAUUGAGCAUCA
B9: chr17:64801638:64801639:+_ENSG00000154229_ENST00000413366|hu_mus|hu_hu_hu_mus_False|28_78 (ssRNA)
RNA: GGGAGUUCUACAGUCCGACGAUCUAUAUAUAUAUAUACAUAUGUACACAUAUAUAGUAAGAGCCUAGUUAAACGUGUAAAGUAGCCAUUCAUUUUUAAAAUUACAUCUACAUUUAAAAAUUAAUAUAUCUGAUAGAGUGCCAGCAACAGAGGAUUGAGCAUCA
B10: chr10:126492284:126492285:-_ENSMUSG00000040502_ENSMUST00000040307|mus_hu|FALSE|FALSE (ssRNA)
RNA: GGGAGUUCUACAGUCCGACGAUCAAAGUGCCCAGGCUUCAGGCUGACCCACAUUGUAAACAGUCCUUCCCAAAUCUUUUCUCUAUAAACAACAGUCCUCUAUGCUGCUGCCUCCAAACAUAAUGCCAUCCAUUAAUACCACUGCAACAGAGGAUUGAGCAUCA
B11: chr8:117878989:117878990:-_ENSG00000164754_ENST00000297338|hu_hu|hu_hu_hu_mus_True|28_58 (ssRNA)
RNA: GGGAGUUCUACAGUCCGACGAUCCCAGAGGCCCUCGUUUACUGAGGACAAAAUGUGCGUAGAACAUUUUUCUUAUUGGCUAUGAAAUAAGAAGAAACCUGGAUCUCCCGCUGGGAGCGGGAGGGGUGGGUGGCCCGGGGAGGGCAACAGAGGAUUGAGCAUCA
B12: 34387834_34398913_243_CDS_ENSG00000134779_ENST00000590842|human|control|control (ssRNA)
RNA: GGGAGUUCUACAGUCCGACGAUCGUGGAAGCCAUUGGUCAUCAGGUAAAAGUUCUUCACAUCUUCAGGCAUCACACAGUUAUUCUUUUGUUCCCAGGAAGAAAUCAUAUGACGUUCAGCAGGAGGCUUUUCUAUGAUGGUCACCAACAGAGGAUUGAGCAUCA
B13: chr11:61589858:61589859:-_ENSMUSG00000004798_ENSMUST00000004920|mus_mus|motif|central (ssRNA)
RNA: GGGAGUUCUACAGUCCGACGAUCCUAUUUUGAAGAUAAUGCAGUUACAAAUGAGAGGUAGAAACACUGUAGUAAAGACCGGAGAAUACAAACAUCCUAUACAUAAACGUUCAAAUUAACUGCUGGAAUUUCAUACAGAUAAAUCAACAGAGGAUUGAGCAUCA
B14: chr17:74891714:74891715:+_ENSMUSG00000024072_ENSMUST00000024873|mus_mus|FALSE|FALSE (ssRNA)
RNA: GGGAGUUCUACAGUCCGACGAUCAGAUUCUUUGAUGAAAUCUCCGCUUACACCGAGGUUUAAUUUGACAUCUGGAGCUGCUAUAGAACCGCUGAGAUCUUCCGCGUCCGCCGAAGACACAAAGGUGAAGUCCCCGUUGGCAGGCAACAGAGGAUUGAGCAUCA
B15: chr8:117878989:117878990:-_ENSG00000164754_ENST00000297338|hu_hu|hu_hu_hu_mus_True|28_48 (ssRNA)
RNA: B11 RNA with G77U, U87A, A88C
B16: chr18:78020638:78020639:+_ENSMUSG00000025428_ENSMUST00000026495|mus_mus|FALSE|FALSE (ssRNA)
RNA: GGGAGUUCUACAGUCCGACGAUCAUCAGACCUGAUAUUGCCCAAGAGGGACUGGUGCUGGCUGAUAACGUGAGACAAGAAAGCAUUCUCAAACUUUGUGAUCUUGCUGGGCUCCAGUUUGUCAAGAUAACCCCGUACACCCGCCAACAGAGGAUUGAGCAUCA
B17: chr8:101931661:101931662:-_ENSG00000164924_ENST00000353245|hu_hu|motif|central (ssRNA)
RNA: GGGAGUUCUACAGUCCGACGAUCUAAGUUAGAAAAUGCCAUAUGCCAAAAUUUUAAAUGGAACACACUACAUUUUUUUCGGAUCAAUCCCCCCCUCUCCCAGAAAAAAUAGGAACUCAUUUUUUUCAGGGUGGGGAGGAAGAGCAACAGAGGAUUGAGCAUCA
B18: 86668350_86670814_942_3pUTR_ENSMUSG00000034290_ENSMUST00000040992|mouse|control|control (ssRNA)
RNA: GGGAGUUCUACAGUCCGACGAUCUGCGUGUACCAACUGGAUCAGUUCCAAAGAAUACUGACUCGAGUCAACUUCCAUGGCCCGGAUUCCCUGCACGAUCUUCACACAUAGGUUGAGUGGGUUUGUAGCAUCAAAUGUUCUUUUCAACAGAGGAUUGAGCAUCA
B19: chr16:87731977:87731978:+_ENSMUSG00000025612_ENSMUST00000026703|mus_hu|motif|central (ssRNA)
RNA: GGGAGUUCUACAGUCCGACGAUCUGGGAUGCACUAUCAGAAUUAUUCUCCCUGACAAAUUCUUGAGUGUACUUAUAAAAGCGGCGGGAAAAUAAACAAGUCCAACUAAUUUUCUCUUACAAAUAAGUCAGUGACAGAGAGAACCAACAGAGGAUUGAGCAUCA
B20: chr2:242276830:242276831:+_ENSG00000168385_ENST00000391971|hu_hu|motif|central (ssRNA)
RNA: GGGAGUUCUACAGUCCGACGAUCUAAGGGCUUAAGUCCAUGUCCAAAAGGUGAAAUAAAGUAAAAGCAACAAUGCACCCGGUUAUCAAUGAUGUGCCGCCUGUUCAAGCCGCUCUCGUCAUGCAGGUACCUCUCAAAUUGCUCCAACAGAGGAUUGAGCAUCA
B21: chr5:31261203:31261204:-_ENSMUSG00000045302_ENSMUST00000088063|mus_hu|motif|central (ssRNA)
RNA: GGGAGUUCUACAGUCCGACGAUCGAAGCACACAACUUUCUGCAGUGGAUCGGAGCUAAAGUCUGUCUGCACCGCCUGCAAAUUCUCGGCCCUGAGUUCUAGCCCCUCGUGCUGGGUUUCCGCUCCACAUUUCUUCUCUGCUGGCAACAGAGGAUUGAGCAUCA
B22: chr2:9570881:9570882:+_ENSG00000119203_ENST00000238112|hu_mus|hu_hu_hu_mus_False|58_88 (ssRNA)
RNA: GGGAGUUCUACAGUCCGACGAUCACUUGUCUUCUGAAGGAACCAGGGCAGAGCUCCACAGUGAUCCAAAUGGAAAUGACUAAUUAACAGAAGGUCGAUCUCAGCUGGGUCGAUAAGGUCAAUGUAAGGAAGGGCAUCCAUUCCCAACAGAGGAUUGAGCAUCA

This test concerns the target T1, UNK ZnF1-3 (human, UniProt Q9C0B0 31-174).
T1 sequence: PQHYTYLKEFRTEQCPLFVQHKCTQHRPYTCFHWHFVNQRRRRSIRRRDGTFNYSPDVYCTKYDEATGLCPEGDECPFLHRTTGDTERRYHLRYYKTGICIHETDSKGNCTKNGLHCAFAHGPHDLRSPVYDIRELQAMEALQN
The experiment in a line: nsRBNS (natural sequence RNA bind-n-seq); RBNS binding buffer (assumed for nsRBNS): 25 mM Tris pH 7.5, 150 mM KCl, 3 mM MgCl2, 0.01% Triton X-100, 500 ug/ml BSA, 20 U/ml SUPERase-In, 4 C; UNK is unkempt and MSI1 is Musashi-1; names of the RNAs are library labels; protein concentration not given here; high values mean tight binding.
Consider B1, for which the binding signal came to 0.551 enrichment R.
The figure for B2 is 1.1 enrichment R; for B3 it is 0.93 enrichment R; for B4 it is 0.975 enrichment R.
The same measure for B5: 0.605 enrichment R.
The figure for B6 is 1.49 enrichment R; for B7 it is 0.975 enrichment R; for B8 it is 2.59 enrichment R.
For B9, the binding signal was 1.79 enrichment R.
Regarding B10, the binding signal turned out to be 1.49 enrichment R.
In the case of B11, the binding signal came to 1.37 enrichment R.
The same measure for B12: 1.34 enrichment R.
In turn, B13 displayed a binding signal of 1.92 enrichment R.
The same measure for B14: 0.853 enrichment R; for B15: 1.39 enrichment R.
The figure for B16 is 1.54 enrichment R; for B17 it is 0.613 enrichment R; for B18 it is 1.17 enrichment R.
With B19, the binding signal is 0.614 enrichment R.
The same measure for B20: 0.982 enrichment R; for B21: 1.11 enrichment R; for B22: 1.4 enrichment R.
